# Screen size: about 150,000 compounds; about 540 (0.36%) showed an effect of 50% or more. This is one part of the list.
# System: Plasmodium falciparum
# Test: Primary screen in NF54 nanoGlo assay, in single point, at 2uM, 72h; a lower Z score goes with more inhibition
# Type: functional, Erythrocyte
# Conditions: timepoint 72 hour
Compound,% Inhibition [%],Z score
O=C1CCCN1c1ccc(CNS(=O)(=O)c2cccnc2)cc1,-13,1.55
CCC(CC)N(CCOC)C(=O)Cn1cnnn1,-17,2.31
CCc1ccc(-c2nn3c(-c4ccccc4C(=O)O)nc4ccccc4c3nc2=O)cc1,-8,0.97
N#Cc1ccc(CN2CCN(C(=O)C3CCCC3)CC2)c(F)c1,-20,1.82
Cc1noc(C(C)(C)NC(=O)Nc2ccc(C(F)(F)F)nn2)n1,-4,0.53
O=C(c1ccc2c(=O)n3c(nc2c1)CCCC3)N1CCN(c2ccccc2)CC1,1,-0.16
N#Cc1nccnc1NCCc1ccc[nH]1,-6,0.52
CCOCC1CCN(C(=O)C2(c3ccccc3)CCCN2)C1 (configuration not stated),-14,1.55
COC1(C(=O)NCc2ccc(S(C)(=O)=O)s2)CCCCCC1,8,-0.99
O=C([C@H]1CC(=O)N(c2ccc(O)cc2)C1)N1Cc2cnn(CCO)c2C1,-9,1.62
CNC(=O)c1cc(NCCc2ccccc2OC)ccn1,3,-0.51
C[C@@H]1COCCN(C(=O)Nc2cccc(OCC(=O)N3CCCC3)c2)C1,-7,1.05
C[C@H](OC(=O)CCC1CCCCC1)C(=O)Nc1ccc2c(c1)OCCO2,-5,0.46
O=C(NCC(F)(F)F)[C@H]1CCc2nn(CCOc3ccccc3)c(=O)n2CC1,0,0.03
COc1ccc(NC(=O)c2nc(-c3ccoc3)n(-c3ccc(C)cc3)n2)cc1,-18,3.16
CCN1CCC(NC(=O)c2ccc(Cl)o2)(C(F)(F)F)CC1,-4,0.77
CC(C)N1CC(=O)N([C@H]2CC(C)(C)Oc3ccc(F)cc32)C1=O,3,-0.39
Cc1nn(C)c(C)c1NC(=O)c1cc(Cc2ccccc2)n[nH]1,-9,1.8
CCn1ccc(CN(C)CC[C@H]2CCCCO2)n1,3,-0.43
CCCNC(=O)[C@@H](NC(=O)c1ccc(OC)cc1)C1CCN(C(=O)CC)CC1,13,-1.75
CN(CC(=O)O)C1CCN(C(=O)Nc2cccc(C#Cc3ccccc3)c2)CC1,-1,0.1
CCc1nccn1CC(=O)N1CC[C@@H]2OCc3cccc(c3)Oc3cc(OC(C)C)cc(c3)C(=O)N(CC)CC(=O)N[C@H]2C1,10,-1.39

Compound,% Inhibition [%],Z score
O=C1CCC2(CCN(Cc3ncon3)CC2)CN1C1CC1,-19,1.78
O=C(O)[C@H](O)c1ccc(-c2cccc(-c3ccn[nH]3)c2)cc1,-8,1.13
O=C(CC1CCCC1)N1CCC[C@H](CN2CCN(c3ccccn3)CC2)C1,-4,0.7
CC(=Cc1ccccc1)CN1CCC[C@H](n2cc(CO)nn2)C1,-19,2.18
O=C(C[C@@]1(O)C(=O)N(CN2CCOCC2)c2ccccc21)c1ccccc1Cl,13,-2.03
FC1(F)CCN(Cc2cnc(N3CCCC3)s2)CC1,-10,1.58
CCCNC(=O)CN1C(=O)CCn2nc(-c3ccc(Cl)cc3)cc21,-11,1.09
O=C(Cc1cccn1-c1cccc(Cl)c1)NCCN1CCCC1,-5,0.78
CCCN(CCC)C(=O)Nc1ccc(Cl)c(C#N)c1,-14,2.87
CC(C)(NCC(=O)NC(N)=O)c1ccc(Br)cc1,-13,2.15
CCn1ncnc1CNC(=O)N[C@H]1CCCCc2cc(Br)ccc21,0,0.02
O=C(NCc1ccoc1)NC[C@@H]1COc2ccccc2C1,-9,1.73
O=S(=O)(NC1CC2CCC1C2)c1ccco1 (configuration not stated),-5,0.73
COCCN(Cc1csc(-c2ccoc2)n1)CC(F)(F)F,-16,3.09
O=C1OCC2(CCN(C(=O)Nc3ccccc3-c3ccccc3)CC2)O1,6,-0.62
COc1ccc(NC(=O)c2ccc(NC(=O)[C@@H]3CCN(C)C3=O)cc2)cc1,3,-0.55
Cc1ccc(Nc2n[nH]c(N)c2NC(=O)c2ccc(C)cc2)cc1,0,0.05
CC(C)(C)OC(=O)NC[C@H]1CCCc2ccc(C(=O)O)cc21,0,-0.07
O=C1CN(C(=O)CN2CCN(S(=O)(=O)c3ccccc3)CC2)c2ccccc2N1,-6,0.75
Cn1cc(CNCc2cccc(C3(C)OCCO3)c2)c(C(C)(C)C)n1,-6,0.95
CN(C)CCN1CCC(Nc2nccc3ccc(F)cc23)CC1,4,-0.64
COc1cccc(-c2cc3n(n2)CCCN(C(=O)CC(C)C)C3)c1,-9,0.95

Compound,% Inhibition [%],Z score
N#Cc1ccc(F)c(CNC(=O)N2CCO[C@H](c3ccsc3)C2)c1,-1,0.15
CCC(=O)N1CCN(c2nc(-c3ccccc3)nc(CC)c2Cc2cccc(Cl)c2)CC1,-25,2.24
Cc1cc(F)ccc1CN(C)C(=O)c1ccc2c(c1)C(=O)NCCO2,-8,1.62
Cc1ccc(C(=O)N2CCC[C@H]2c2nc3ccccc3s2)c(=O)[nH]1,-13,1.71
CCCOC1(c2noc([C@H]3CCOC3)n2)CCCCC1,8,-1.09
CCOCC(=O)NCc1cc2n(n1)CCCNC2,5,-0.62
CCc1ncc(C(=O)NCc2cc(-c3cccc(Cl)c3)no2)cn1,3,-0.56
Cc1ccnc(C[C@H](C)N2CCC(N3CCC(C(=O)NC4CC4)CC3)CC2)c1,-5,0.77
O=C1CCc2cc(S(=O)(=O)N3C[C@@H]4[C@@H]5CC[C@@H](C5)[C@@H]4C3)ccc2N1,-9,1.06
Cc1cc(C)c(CNC(=O)c2cnn(C)c2C)c(=O)[nH]1,-9,1.13
C=CCCC(=O)N1CC[C@H](Oc2ccnc(C)n2)C1,-5,0.77
Clc1ccc(-c2cc3c(N4CCC(N5CCCCC5)CC4)nccn3n2)cc1,2,-0.32
CCOc1ccc(-c2c(-c3ccccc3)ncn2C[C@H]2CCCO2)cc1CO,-7,1.01
CC(C)CN1CCN(c2nccnc2N(C)C)CC1=O,-17,1.93
O=C(O)Cn1nc(C2CC2)c2c(C(F)(F)F)cc(-c3ccccc3)nc21,31,-3.53
Cc1cc(CC(=O)N2CC(c3ccc(F)cc3)CC2C)no1 (configuration not stated),-14,2.1
c1ccc(Oc2ccc(-c3ccc4ccccc4n3)cc2)cc1,-2,0.32
CC(NC(N)=O)C(=O)NCCC(C)c1ccccc1 (configuration not stated),-10,1.33
C[C@H]1CCN(C(=O)c2cncc(Br)c2)c2ccccc2N1,-1,0.1
CC(C)Cn1c(CC2(CC(=O)N3CCN(C)C(=O)C3)CCCC2)nc2cccnc21,-2,0.44
CC(C)C(C)NC(=NCc1ccccc1)NCC1CCOC1 (configuration not stated),-8,1
Cc1nc(C)c(C(=O)N(CC(=O)N2CCCCCC2)C(C)C)o1,3,-0.43

Compound,% Inhibition [%],Z score
O=C(NC1CCN(Cc2cccs2)CC1)c1cc(=O)n(-c2ccccc2)[nH]1,4,-0.72
Cc1cc(CNC(=O)c2ccc3c(c2)OCO3)nn1C,-7,1.02
CCCn1c(C)cnc1CCNC(=O)CC,0,-0.02
Cc1cc(COc2ccccc2)oc1C(=O)N(C)Cc1snnc1C,7,-1.03
Cc1nc2ccc(N(C)S(=O)(=O)c3cc(C(=O)O)cs3)cc2s1,33,-1.2
Cc1noc([C@H](C)N(C)Cc2ccc(OCCn3ccnc3)cc2)n1,-16,1.7
C[C@H]1CN(C(=O)c2csc(CN)n2)c2ccccc21,-8,0.91
Nc1nccnc1C(=O)N1CCCCCC1CC(O)c1ccccc1 (configuration not stated),-11,1.49
CC(C)N(Cc1cc(NC(=O)c2cccs2)ccc1N(C)C)C(=O)c1cccc(F)c1,-8,1.58
O=C(Nc1ccc2c(c1)OCO2)c1c[nH]nc1C1CC1,-10,1.87
O=C(NCCc1nnc2n1CCCC2)c1ccc(Cl)c2occc12,-10,1.96
COc1ccc(CN(C)[C@H]2CS(=O)(=O)C[C@@H]2O)cc1Cn1cccn1,-6,1.24
CCOC(=O)N1CC[C@H](NCc2nc(COC)no2)C1,1,-0.22
N#Cc1cccc(CN2CCCO[C@@H](CN3CCCC3)C2)c1,0,0.02
CCOC(=O)C1CCN(C(=O)CN2C(=O)C(C)(C)c3cc(C)ccc32)CC1,-15,2.5
CN(Cc1cnc(N2CCCC2)s1)C1Cc2ccccc2C1,0,0.04
CCCCc1nnc(NS(=O)(=O)c2ccc(OC)c(Cl)c2)o1,-17,2.06
CN(CCC(=O)Nc1ccc2c(c1)CCC2)Cc1cnccn1,-9,1.54
Cc1cc(N2C[C@H]3CCN(Cc4cc5ccccc5o4)[C@H]3C2)ccn1,-8,1.42
COc1ccc(-c2cc(O)nc(C)n2)c(OC)n1,8,-1.53
